In patent US6340697B1, “Oxime derivatives and agricultural chemicals containing the same” (Dainippon Ink and Chemicals, Inc., priority 1997, dated 2002):

How the values were obtained:
[1] = system: Phytophthora infestans; set-up: key: Grade “A” was selected when there is no plant with lesions or no withered plant; grade “B” was selected when the number of diseased plants, which include plants with lesions or withered plants, is around 10% among the total numbers of plants; Grade “C” was selected when the number of diseased plant is around 25%; grade “D” was selected when the diseased plants exceed 50%; conditions: tomato foliage spray, effective component 250 ppm, degree of disease after 5 days
Experimental: (§1) The effectiveness of the compounds obtained by the present invention against various plant diseases will be hereinafter described with reference to following test examples. The status of the test plants at the time of testing the control effects of the present chemicals, that is, the degree of lesions appearing on foliage or the number of plants attacked by Phytophthora are visually observed, and the results were evaluated by four grades “A”, “B”, “C”, and “D”. Grade “A” was selected when there is no plant with lesions or no withered plant, and grade “B” was selected when the number of diseased plants, which include plants with lesions or withered plants, is around 10% among the total numbers of plants. Grade “C” was selected when the number of diseased plant is around 25%, and grade “D” was selected when the diseased plants exceed 50%.
The water-dipersable powder prepared by the method shown in Formulation Example 2 was diluted with water containing a surface active agent (0.02%) so as to contain the effective component at a concentration of 250 ppm. The thus prepared solution was sprayed on foliage at the 3 to 4 leaf stage of tomatoes (variety: Toyofuku) which were grown in plastic pots with a diameter of 9 cm. […] After 5 days, the degree of disease was determined. […]

[2] = system: Pythium aphanidermatum; assay: Control test of a plant disease caused by Pythium aphanidermatum (cucumber, soil drench); set-up: key: Grade “A” was selected when there is no plant with lesions or no withered plant; grade “B” was selected when the number of diseased plants, which include plants with lesions or withered plants, is around 10% among the total numbers of plants; Grade “C” was selected when the number of diseased plant is around 25%; grade “D” was selected when the diseased plants exceed 50%; conditions: cucumber seeds, soil drench 1,000 ppm, 4 days
Experimental: as §1
A mixture of sterilized soil and Pythium aphanidermatum was put in a deep petri-dish with a diameter of 15 cm. After seeding 10 seeds of cucumber (variety: Nouryoku Shintokiwa) for each pot, a water-diluted dispersion of water-dispersible powder prepared according to the Formulating Example 2 at the effective component concentration of 1,000 ppm was drenched on the soil. After drenched, the pot was placed in a wet room and was subjected to a weathering instrument with a day-length of 14 hours for 4 days. The degree of the plant disease was determined. […]

[3] = system: Pyricularia oryzae; type: in vivo; set-up: key: Grade “A” was selected when there is no plant with lesions or no withered plant; grade “B” was selected when the number of diseased plants, which include plants with lesions or withered plants, is around 10% among the total numbers of plants; Grade “C” was selected when the number of diseased plant is around 25%; grade “D” was selected when the diseased plants exceed 50%; conditions: rice foliage spray, effective component 250 ppm, degree of disease after 7 days
[4] = system: Pseudoperonospora cubensis (a metalaxyl resistant fungi strain); assay: Control test of plant disease caused by Pseudoperonospora cubensis (leaf disc test; Test Examples 3 and 8); conditions: cucumber leaf disc immersed 30 minutes at 10 ppm, 7 days
[5] = system: (A) metalaxyl-sensitive Plasmopara viticola; assay: Control test of plant disease caused by Plasmopara viticola (leaf disc test), fungi (A) (Test Examples 4 and 9); conditions: vine leaf disc immersed 30 min at 10 ppm, cultured seven days
[6] = system: (B) metalaxyl-resistant Plasmopara viticola; assay: Control test of plant disease caused by Plasmopara viticola (leaf disc test), fungi (B) (Test Examples 4 and 9); conditions: vine leaf disc immersed 30 min at 10 ppm, cultured seven days
Experimental: The effectiveness of the compounds obtained by the present invention against various plant diseases will be hereinafter described with reference to following test examples. The status of the test plants at the time of testing the control effects of the present chemicals, that is, the degree of lesions appearing on foliage or the number of plants attacked by Phytophthora are visually observed, and the results were evaluated by four grades “A”, “B”, “C”, and “D”. Grade “A” was selected when there is no plant with lesions or no withered plant, and grade “B” was selected when the number of diseased plants, which include plants with lesions or withered plants, is around 10% among the total numbers of plants. Grade “C” was selected when the number of diseased plant is around 25%, and grade “D” was selected when the diseased plants exceed 50%. A leaf disc formed by stamping a leaf of an alley grown vine (variety: neo masukatto) was immersed in a chemical-containing solution which was prepared using a water-dispersible powder at an effective component concentration of 10 ppm for 30 min. […] A control test was executed by the same method as that shown in Test Example 4.

| Compound | Evaluation [1] | Evaluation [2] | Evaluation [3] | Evaluation [4] | Evaluation Metalaxyl-sensitive Plasmopara viticola A [5] | Evaluation Metalaxyl-resistant Plasmopara viticola B [6] |
| --- | --- | --- | --- | --- | --- | --- |
| Cc1nsnc1C(=NOCc1csc(NC(=O)C(C)C)n1)c1ccccc1 [8-(b)-7] | A | A |  |  |  |  |
| Cc1snnc1/C(=N\OCc1ccccn1)c1ccccc1 [1-(a)-1, (Z)-(5-methyl-1,2,3-thiadiazol-4-yl) phenylmethanone O-(2-pyrydyl)-methyl oxime] | A | A | A |  |  |  |
| manzeb [reference compound] |  |  |  | C (Grade “C” was selected when the number of diseased plant is around 25%) | C (Grade “C” was selected when the number of diseased plant is around 25%) | C (Grade “C” was selected when the number of diseased plant is around 25%) |
| COCC(=O)N(c1c(C)cccc1C)C(C)C(=O)OC (stereo not shown) [Metalaxyl, metalaxyl, reference compound] |  |  |  | D (grade “D” was selected when the diseased plants exceed 50%) |  | D (grade “D” was selected when the diseased plants exceed 50%) |
